Test results: the supplement of paper PMC11417369
± gives the standard deviation of the averaged measurements. This is one part of the list.

system: PfAP2-EXP AP2 domain (GST-tagged); test: gcPBM binding intensity (ln(normalized median fluorescence intensity)); higher = stronger DNA binding
Outline: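 For binding intensity, the highest Masliner-normalised natural-log median intensity across replicate spots of either probe orientation was taken. Protein bound to the array was stained with Alexa488 anti-GST antibody and scanned at 488 nm. The protein, GST-tagged P. falciparum DNA-binding domains from E. coli at about 25 μg on average, had been applied for 1 h to an Agilent 4 × 180k array of primer-extended double-stranded 36-bp intergenic genomic probes and negative controls.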

Sequence	gcPBM binding intensity (ln)
GTAGAATCAGTATTCACACATAAATGTATCCAAATG [CACACA_site5395]	8.55 ± 0.4
GGGAATATATTCAATTGTACATTCTTATTTTATCCA [XGTACX_site8480]	8.81 ± 0.43
ACGCACGAAATAAATACATGCATATTGTAAAAATTA [TGCATGCA_site310]	8.6 ± 0.21
TCTTTTTTTTTACATACTTTTTTCCTTTTTTTTTTA [CACACA_negctrl_site1429]	8.63 ± 0.49
TATTTAATGCAAAAACGTACATAAATAACATTCACA [XGTACX_site5356]	8.57 ± 0.4
TATAAACACCCATATAAACACACATACATACATACA [CACACA_site8791]	9.27 ± 0.27
TATATATATATTAGTGGTACAAGATTTTTTTCTTTT [XGTACX_site4619]	9.8 ± 0.085
TTTTTTCATAAATAATGTACATATATATATATATAT [XGTACX_site3620]	10.1 ± 0.28
CTAGACTTTTTACAATGTACATATTTATGTATTATT [XGTACX_site1833]	8.62 ± 0.25
TCTTGTAGATATATTTGTACATATATTTATGGGTAT [XGTACX_site1139]	8.69 ± 0.35
AAAATTTTTTACTTTACACACATTTTGTATATTTTG [CACACA_site1730]	8.89 ± 0.28
AAAAAATATATATTAACACACACACTAATAAAAAAA [CACACA_site8366]	8.65 ± 0.54
ATATTATTTATAAGTTGTACGGTATAATATAATATA [XGTACX_site5371]	8.52 ± 0.41
GTTCAAAATATGAACACACACATATATATATATATA [CACACA_site2057]	10.2 ± 0.51
TTTCGTAATATGCGTGTGCACAATGAGTCCATATCT	8.96 ± 0.23
ATCTACATATATTATTGTACATTGTTAAAAATTTAT [XGTACX_site7769]	8.58 ± 0.34
TAAAATATAATTAGCACACATATATAAAATATATAT [CACACA_site4093]	8.22 ± 0.3
TTTTTTTTTTTTTGGGGTACATTTTAATTAATATTA [XGTACX_site4866]	8.56 ± 0.71
ATATATTGTATGTGCTCACACATGTTTCGATATTAT [CACACA_site4336]	8.65 ± 0.35

Sequence	gcPBM binding intensity (ln)
GTTGTTTCTATAAATTGTACTTAAATATAATTATAT [XGTACX_site585]	8.86 ± 0.26
GTAAATATGTTTATTAGTACACATATGAAAATAAAT [XGTACX_site5820]	8.78 ± 0.41
AAAATCACAAGACACACACACACAAAAAAAAAAAAA [CACACA_site6791]	8.29 ± 0.47
AGTATAAAATAAATGTGTACACAAGAAAATATGTTA [XGTACX_site8381]	9.06 ± 0.42
AAAATATTTTAATGTTGTACATTAATATATTATATA [XGTACX_site2513]	8.12 ± 0.32
ATATATATATGTATGTGTCCACAAGGAGATATATAT [XGTACX_site783]	9.59 ± 0.071
AGTAAATAATAGATCGCATGTAATAACTAGTAGGAA [TGCATGCA_site948]	9.18 ± 0.86
ACAATTGAAGAAATACGTACATAAAGAAAAACTAGT [XGTACX_site820]	9.16 ± 0.51
ATTATAAAGACATATACACACATACGTACATACATA [CACACA_site5893]	8.73 ± 0.38
AACAGATAAAAGGGTACACACATATATACCTGTACA [CACACA_site4285]	8.58 ± 0.28
TGTACATTCGGAGTAAAAAAAAATTTATACAATTAC [CACACA_negctrl_site1451]	8.45 ± 0.44
TACATAAATATATGTGTGCACAATTTCGTATATTTA [GTGCAC_site9859]	8.86 ± 0.31
TGTATTAAATTTTGAACACACAAAATAAAACATATA [CACACA_site1672]	8.56 ± 0.47
TAATAAAAATAAAATTGTACTAATAACATTTCATTA [XGTACX_site3703]	7.89 ± 0.3
TATATAACTGTCTTCAGTACACAATAAATAAAAATA [XGTACX_site8856]	8.64 ± 0.42
TTTCAAAAAAATAGCTATATTTATATTAATGCACGA [TGCATGCA_negctrl_site63]	9.72 ± 1
AAAGGTGTATATAATACACACGTGTGATTAAAATTG [CACACA_site8104]	8.73 ± 0.35
AACTTTGAGACATAGTGTACTTACACAATCTTAATA [XGTACX_site3712]	8.32 ± 0.34
ACATTTTTTTTTTTTTTTCTTTTTCTTTTTCTTTTT [CACACA_negctrl_site1295]	8.36 ± 0.67

Sequence	gcPBM binding intensity (ln)
CATATTTGATACAAGTGTACTTTATTTAAAAATTCT [XGTACX_site8408]	8.37 ± 0.28
AACCTAAGCATTCTTCAAATTATATATGTAAAATGA [CACACA_negctrl_site261]	8.22 ± 0.56
TCGTATCTATTGAGGGTGCCTCTATAATTGATACAA [GTGCAC_site9636]	8.31 ± 0.4
TAATATAATATATGCACACAAATATGTATTTATGTG [CACACA_site5210]	8.32 ± 0.35
GAAAAAATAAAATAAAGTACATAACTATAATAAAAA [XGTACX_site4807]	8.64 ± 0.28
ATATATAAACACTCTTGTACATAATAATGTATATAT [XGTACX_site2451]	8.45 ± 0.31
CTTACACCCATATATACACACATGTATATTTTATAT [CACACA_site4462]	8.82 ± 0.41
TACTCCTCAATATTATGTACATATAATAGTTATAAA [XGTACX_site8551]	8.69 ± 0.38
TGTTTTATACTAAATGAACACACACCCATATATATA [CACACA_site7912]	8.7 ± 0.46
TTATTTATTTATAATAGTACAATTTAATGATCTTCT [XGTACX_site4831]	8.13 ± 0.32
CAATATATTTGATTTACACACTTACAATGTATATAA [CACACA_site2994]	8.45 ± 0.33
CCAACATGCCCACGCACACACAAAAAAAGCATGCAT [CACACA_site4217]	9.19 ± 0.33
AATAATATATATATATATATAATAAAATATAAATAG [CACACA_negctrl_site1515]	8.52 ± 0.37
ATAGAAATATATATATGTACATATAGATAAATCTAT [XGTACX_site7833]	8.32 ± 0.33
ATATGAAATAATAATAGTACATAAAATAATTTTACT [XGTACX_site6964]	8.27 ± 0.28
ATAAATACAGATAACACACACATATATATATATATA [CACACA_site5431]	10.1 ± 0.59
AAAAATAACGTAAATTGTACATGTAAAATTTTCTAT [XGTACX_site7158]	8.47 ± 0.31
ATATAAATTTTTTAGAGTACTAAAATAAAATAATAT [XGTACX_site2118]	8.37 ± 0.41
